Assay results published in a collection of fitness landscapes (doi:10.1126/science.1257360).
Some of the results follow.

B1: PhoQ; a variant is named by its letters at X, in order, P23837 (parent)
chain: MKKLLRLFFPLSLRVRFLLATAAVVLVLSLAYGMVALIGYSVSFDKTTFRLLRGESNLFYTLAKWENNKLHVELPENIDKQSPTMTLIYDENGQLLWAQRDVPWLMKMIQPDWLKSNGFHEIEADVNDTSLLLSGDHSIQQQLQEVREDDDDAEMTHSVAVNVYPATSRMPKLTIVVVDTIPVELKSSYMVWSWFIYVLSANLLLVIPLLWVAAWWSLRPIEALAKEVRELEEHNRELLNPATTRELTSLVRNLNRLLKSERERYDKYRTTLTDLTHSLKTPLXXLQXXLRSLRSEKMSVSDAEPVMLEQISRISQQIGYYLHRASMRGGTLLSRELHPVAPLLDNLTSALNKVYQRKGVNISLDISPEISFVGEQNDFVEVMGNVLDNACKYCLEFVEISARQTDEHLYIVVEDDGPGIPLSKREVIFDRGQRVDTLRPGQGVGLAVAREITEQYEGKIVAGESMLGGARMEVIFGRQHSAPKDE

Variants of: B1
Experiment: enrichment ratio after two sorts for PhoP signalling (ratio (wild type AVST 3.29)); higher = more functional
Details: with PhoP (E. coli)

| Variant | enrichment ratio |
| --- | --- |
| YHGV | ≤ 0.25 |
| PLTY | ≤ 0.25 |
| FSWN | ≤ 0.25 |
| VKHV | ≤ 0.25 |
| SYDG | ≤ 0.25 |
| KIQH | ≤ 0.25 |
| SIPH | ≤ 0.25 |
| MSSA | 0.453 |
| TSQH | 8.47 |
| NSMF | ≤ 0.25 |
| INPF | ≤ 0.25 |
| LRCY | ≤ 0.25 |
| WNTL | ≤ 0.25 |
| TFWR | ≤ 0.25 |
| WTKR | ≤ 0.25 |
| RKVP | ≤ 0.25 |
| IVFS | ≤ 0.25 |
| RMRY | ≤ 0.25 |
| KTTH | ≤ 0.25 |
| VEGA | ≤ 0.25 |
| RSCW | ≤ 0.25 |
| EMDD | ≤ 0.25 |
| FAAS | ≤ 0.25 |
| SRYI | ≤ 0.25 |
| SDRQ | ≤ 0.25 |

| Variant | enrichment ratio |
| --- | --- |
| HKED | ≤ 0.25 |
| SHRN | ≤ 0.25 |
| WNLM | ≤ 0.25 |
| MITR | ≤ 0.25 |
| IYMW | ≤ 0.25 |
| RVYN | ≤ 0.25 |
| DFRN | ≤ 0.25 |
| VGYH | ≤ 0.25 |
| DVHG | ≤ 0.25 |
| QNGW | ≤ 0.25 |
| HYLI | ≤ 0.25 |
| FLFF | ≤ 0.25 |
| TQFP | ≤ 0.25 |
| ISFL | ≤ 0.25 |
| TELT | 14.5 |
| YAAS | ≤ 0.25 |
| EIWH | ≤ 0.25 |
| DFWH | ≤ 0.25 |
| TVQG | 14.6 |
| EYTV | ≤ 0.25 |
| WSTA | ≤ 0.25 |
| QAWS | 18.4 |
| DGYT | ≤ 0.25 |
| ISHS | ≤ 0.25 |
| MRPN | ≤ 0.25 |

| Variant | enrichment ratio |
| --- | --- |
| HRFV | ≤ 0.25 |
| VCPS | ≤ 0.25 |
| APAS | ≤ 0.25 |
| ITVT | ≤ 0.25 |
| FQCG | 1.7 |
| WSFG | ≤ 0.25 |
| GLLG | 3.41 |
| WMVL | ≤ 0.25 |
| LATI | ≤ 0.25 |
| LEHG | ≤ 0.25 |
| IHFT | ≤ 0.25 |
| TSSD | ≤ 0.25 |
| LANQ | ≤ 0.25 |
| GVTS | ≤ 0.25 |
| FNEY | ≤ 0.25 |
| LMRA | ≤ 0.25 |
| REYY | ≤ 0.25 |
| SSIG | 11.5 |
| QPYC | ≤ 0.25 |
| FAQF | ≤ 0.25 |
| KRID | ≤ 0.25 |
| PQMK | ≤ 0.25 |
| QVRM | ≤ 0.25 |
| KLWH | ≤ 0.25 |
| LQMP | ≤ 0.25 |

| Variant | enrichment ratio |
| --- | --- |
| SYDA | ≤ 0.25 |
| PEGW | ≤ 0.25 |
| YSRG | ≤ 0.25 |
| VHTG | ≤ 0.25 |
| ENKH | ≤ 0.25 |
| ELDT | ≤ 0.25 |
| WRPP | ≤ 0.25 |
| TDQE | ≤ 0.25 |
| WTRK | ≤ 0.25 |
| WRHD | ≤ 0.25 |
| HGSC | ≤ 0.25 |
| YFCC | ≤ 0.25 |
| DMDN | ≤ 0.25 |
| NTCN | ≤ 0.25 |
| IWAP | ≤ 0.25 |
| VQMY | ≤ 0.25 |
| WCQS | ≤ 0.25 |
| MGAW | ≤ 0.25 |
| NEVY | ≤ 0.25 |
| YHEA | ≤ 0.25 |
| STCV | 6.12 |
| ASPF | 0.281 |
